The whole screen tested about 43,000 compounds, of which about 200 (0.47%) were called active. Inconclusive results (about 12%) are left out. Calls come from the whole dose curve; as a rule, active = well fitted cell-killing curve with a large enough effect; inconclusive = small, poorly fitted or top-dose-only effect, or effect the other way; inactive = flat fitted curve, though single readings scatter. This is one part of the list.
Assay: Cell viability qHTS assay in S16 Pmp22-F2sN cells; note: nearly all actives have a fitted effect of over 65% in size
Settings: S16 Pmp22-F2sN Schwann cells (luciferase reporters placed in the Pmp22 gene) viability, CellTiter-Glo, 24 h; series mostly up to 57.5 µM; activity change, negative = cytotoxicity: at the top concentration
In short: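 CellTiter-Glo counter-screen, qHTS, 1536-well. Cells: S16(c9) Pmp22-F2sN, 500-1,000/well in DMEM + 10% FBS. Cpd 23 nL pin transfer, 24 h, 37C/5% CO2. Read: luminescence, CCD imager.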
% is set by controls: 0 for no effect and ±100 for the full control effect.

Compound | activity change, negative = cytotoxicity
COc1ccc(NC(=O)c2c(NCc3ccc(OC)c(OC)c3OC)sc3c2CCC3)c(OC)c1 | inactive: -24.1%
CCCCCOc1ccccc1CN1C(=O)C(=O)c2cc(C)ccc21 | inactive: -0.0419%
COc1cccc(CNC(=O)Cn2nc(-c3ccc(C)cc3)ccc2=O)c1 | inactive: -6.46%
COc1ccccc1NC(=O)CSc1ccc(-c2ccccn2)nn1 | inactive: -10.9%
Cc1ccc(N(C)C(CNS(=O)(=O)c2ccccc2)c2ccccc2)cc1 (configuration not stated) | inactive: -5.3%
Cc1ccc(CNC(=O)C2CCC(CNS(=O)(=O)c3ccc(C)cc3)CC2)cc1 (configuration not stated) | inactive: 12%
COc1ccc(-n2ccnc2SCC(=O)Nc2cccc(OC)c2)cc1 | inactive: -9.85%
Cc1ccc(NC(=O)Cn2cc(C(=O)c3ccco3)c3ccccc32)cc1C | inactive: -2.97%
CCn1ccc2cc(S(=O)(=O)N3CCCN(C(=O)Nc4cccc(SC)c4)CC3)ccc21 | inactive: 1.25%
CCCNC(=O)C1CCN(C(=O)N2CC(C)Oc3ccccc32)CC1 (configuration not stated) | inactive: -0.0255%
O=C(C1CCC(Cn2c(=O)c3sccc3n(Cc3cccc(F)c3)c2=O)CC1)N1CCOCC1 (configuration not stated) | inactive: -26.3%
CCCCCCNC(=O)c1c[nH]c2ccc(S(=O)(=O)N(C)c3ccc(C(C)C)cc3)cc2c1=O | inactive: -7.16%
N#C/C(=C/c1ccccc1Cl)c1nc2ccccc2c(=O)[nH]1 | inactive: 1.57%
COc1ccc(N2CCN(C3(c4ccccc4)C(=O)c4ccccc4C3=O)CC2)cc1 | inactive: -3.41%
Cc1ccc(Cl)cc1N(C)C(=O)c1cc2c(Cl)nc3ccccc3c2s1 | inactive: 18.2%
COc1ccc(N2C(=O)CSC23C(=O)N(CC(=O)Nc2ccccc2F)c2ccccc23)cc1 (configuration not stated) | inactive: -15.4%
Cc1cccc(C(=O)Nc2cc3nn(-c4ccc(C(C)C)cc4)nc3cc2C)c1 | inactive: 5.62%
COc1cccc(OC(=O)CSc2nnc(-c3cccs3)o2)c1 | inactive: 2.16%
Cc1cc2nn(-c3ccc(F)cc3)nc2cc1NC(=O)c1cccc([N+](=O)[O-])c1C | inactive: -0.317%
CC(=O)Nc1ccc(Nc2nc3c(S(=O)(=O)c4cc(C)ccc4C)nnn3c3ccsc23)cc1 | inactive: -0.707%
COC(=O)c1ccccc1NC(=O)c1nn(C)c2c1COc1ccccc1-2 | inactive: -1.9%
Cn1c(SCC(=O)Nc2nc3ccccc3s2)ncc(C(=O)Nc2ccc(Cl)cc2)c1=O | inactive: -3.14%
CCOCCCNC(=O)c1cn(CC(C)C)c(=O)c2c1c1ccccc1n2C | inactive: 16.8%
COc1cccc(NC(=O)Cn2nnc(C(=O)NCc3ccc4c(c3)OCO4)c2N)c1 | inactive: -2.96%
CSc1ncc(Cl)c(C(=O)N(C)c2ccccc2)n1 | inactive: 10.8%

Compound | activity change, negative = cytotoxicity
CCN1CCN(c2ncc3c(n2)CCN(Cc2cccc(F)c2F)C3)CC1 | inactive: 10.5%
Cc1cc(C)c(NC(=O)CSc2nc(=O)n(Cc3cccnc3)c3c2CCC3)c(C)c1 | inactive: 6.19%
COc1ccccc1Nc1ncc2c(n1)CCN(Cc1cc(F)cc(F)c1)C2 | inactive: -17.2%
Cc1ccc(N2CCN(Cc3nnc(-c4ccccc4F)o3)CC2)c(C)c1 | inactive: -23%
Cc1ccc(-c2c3c(=O)n(C)c(=O)n(C)c3c3cnc4ccccc4n23)cc1 | inactive: -7.29%
Cc1ccc(S(=O)(=O)CC(=O)Nc2nc3c(C)cccc3s2)cc1 | inactive: 6.74%
O=C(Nc1ccc(Cl)c(C(F)(F)F)c1)c1nc2ccccc2nc1N1CCCCC1 | inactive: -1.91%
COc1ccc(-c2[nH]c3c(c2-c2c(-n4cccc4)n(C)c(=O)[nH]c2=O)c(=O)[nH]c(=O)n3C)cc1F | inactive: 8.17%
COc1ccccc1Nc1nc(N)nc(N)c1S(=O)(=O)c1ccccc1 | inactive: 6.03%
COc1ccc(-n2nnc(-c3nsc(NC(=O)c4cccc(C)c4)n3)c2C)cc1OC | inactive: 2.3%
COc1cccc(NC(=O)/C(C#N)=C/c2c(C)n(Cc3ccccc3)c3ccccc23)c1 | inactive: -15.1%
CCOc1ccc(NC(=O)CCc2c(C)nc3nc(-c4cc(OC)cc(OC)c4)nn3c2C)cc1 | inactive: 16.9%
CC(=O)N1CCc2cc(Br)cc(S(=O)(=O)NCCc3cccc(C)c3)c21 | inactive: 2.22%
Cc1ccc(Nc2nc3ccccc3nc2-n2nc(C)cc2C)c(Cl)c1 | inactive: 15.8%
CSc1ccc(CNC(=O)c2sc3ncnc(N(C)C4CCCCC4)c3c2C)cc1 | inactive: -6.61%
Cc1cccc(C(=O)N2c3ncnn3C3(CCCCC3)[C@@H]3CCCC[C@@H]32)c1 | inactive: -26.5%
COc1cc2c(cc1NC(=O)COc1ccc(Br)cc1)oc1ccccc12 | inactive: 2.06%
Cc1cc(C)c(NC(=O)C2CCN(C(=O)N3CCOc4ccccc43)CC2)c(C)c1 | inactive: 3.51%
COc1ccc(-c2cc(C(F)(F)F)n3ncc(-c4ccccc4)c3n2)cc1 | inactive: -15.3%
COC(=O)c1ccc2c(=O)n(CCc3ccc(S(N)(=O)=O)cc3)c(SCC(=O)C(C)(C)C)nc2c1 | inactive: 0.202%
CCOC(=O)c1cccc(NS(=O)(=O)c2ccc(-c3coc(C)n3)cc2)c1 | inactive: -0.139%
CCOCCCn1c(SCC(=O)NCc2ccccc2)nc2c(sc3ccccc32)c1=O | inactive: 16.6%
COc1ccc(NC(=O)c2nnn(CC(=O)Nc3cccc(C)c3C)c2N)c(OC)c1 | inactive: -7.47%
COc1ccccc1CNc1nc2ccccc2c2nc(-c3cccc(C)c3)nn12 | inactive: 2.46%
COc1cc([N+](=O)[O-])ccc1NC(=O)N1CCC2(CC1)Nc1ccccc1-n1cccc12 | inactive: 5.86%

Compound | activity change, negative = cytotoxicity
COc1ccc2cc3cc(C(=O)N4CCN(c5cccc(C(F)(F)F)c5)CC4)sc3nc2c1 | inactive: -5.6%
COc1ccc(-c2nc3sc(CCNC(=O)C(=O)Nc4cc(F)ccc4F)c(C)n3n2)cc1 | inactive: 1.65%
Cc1cccc(NC(=O)CN(C)S(=O)(=O)c2ccc3c(c2)CCC(=O)N3)c1C | inactive: 2.71%
CCOc1ccc(C(=O)Nc2cccc(NC(=O)c3ccc(Cl)cc3Cl)c2)cc1 | inactive: -7.13%
CCCCOc1ccccc1Cn1c(=O)sc2ccccc21 | inactive: -0.984%
CC(C)CCNC(=O)c1cc(-c2ccc(Br)s2)nc2ccccc12 | inactive: -2.6%
COc1ccc(-c2cc(C)no2)cc1S(=O)(=O)N1CCCC(C)C1 (configuration not stated) | inactive: -8.67%
Cc1cccc(NC(=O)c2ccc3[nH]c(C)cc(=O)c3c2)c1 | inactive: 12.7%
Cn1c(=O)[nH]c(=O)c2c1nc(CN1CCN(c3ccccc3)CC1)n2Cc1c(F)cccc1Cl | inactive: -4.03%
COc1cccc(NC(=O)Nc2ccc3snnc3c2)c1 | inactive: -29.8%
CCOc1ccc2nc(N3CCCC(C(=O)Nc4ccc(CC)cc4)C3)sc2c1 (configuration not stated) | inactive: -5.7%
CCc1ccc2oc(-c3cccc(NC(=O)COc4ccccc4Cl)c3)nc2c1 | inactive: 2.42%
CCN(CC)S(=O)(=O)c1ccc2c(c1)N(CC(=O)NCCc1ccccc1)C(=O)CO2 | inactive: 5.08%
Cc1ccc(NC(=O)Cn2c(=O)nc(-c3ccccc3)c3ccccc32)cc1 | inactive: 0.501%
CCCCNC(=O)CCn1nc(-c2ccc(Cl)cc2)c2ccccc2c1=O | inactive: -24.2%
CCCCOc1ccc(CNC(=O)c2cnc3sc(N4CCCCCC4)nn3c2=O)cc1 | inactive: 0.225%
Cc1c(C(=O)NCc2cccc(F)c2)oc2c1-c1[nH]ncc1CC2 | inactive: -7.56%
Cc1cccc(C(=O)n2nc(-c3cccnc3)nc2NCc2ccc(F)cc2)c1 | inactive: -1.43%
COc1cc(NC(=O)C(CC(C)C)N2Cc3ccccc3C2=O)cc(OC)c1 (configuration not stated) | inactive: -11.2%
CCOc1ccc(NC(=O)CSc2nc3ccsc3c(=O)n2CC)cc1 | inactive: -4.29%
CCN(CC)C(=O)c1ccc2c(c1)N(Cc1ccccc1F)C(=O)c1ccccc1S2=O (configuration not stated) | inactive: -0.113%
COc1ccc(NC(=O)C2CCCN(S(=O)(=O)c3c(C)[nH]c(=O)[nH]c3=O)C2)cc1 (configuration not stated) | inactive: -0.0934%
CCCCOc1ccc(CNC(=O)CN2C(=O)CCn3nc(-c4cn(C)c5ccccc45)cc32)cc1 | inactive: 0.568%
CCC1CN(C(=O)NCc2ccc(F)cc2)c2cc(Cl)ccc2O1 (configuration not stated) | inactive: -7.05%
COc1ccc(C2CC(=O)c3cc(-c4nc(-c5ccc(C)cc5)cs4)c(=O)[nH]c3C2)cc1 (configuration not stated) | inactive: 9.8%

Compound | activity change, negative = cytotoxicity
CCOC(=O)c1c(C)[nH]c(C)c1S(=O)(=O)N(C)CC(=O)NCc1ccc(C)cc1 | inactive: -4.97%
COc1ccc(-c2nn(-c3ccc(C)c(Cl)c3)c3c2cnc2cc(OC)c(OC)cc23)cc1 | inactive: 10.6%
Nc1nc(Nc2cccc(Cl)c2)sc1C(=O)c1ccc(F)cc1 | inactive: -26.9%
CCOc1ccc(/C=C/C(=O)Nc2sc3c(c2C(=O)OC)CCCC3)cc1 | inactive: -1.24%
COc1cc(OC)c(NC(=O)CC(C)S(=O)(=O)c2ccc3c(c2)NC(=O)CO3)cc1Cl (configuration not stated) | inactive: 2.06%
COc1ccc(S(=O)(=O)NCCc2csc(-c3cccc(F)c3)n2)cc1OC | inactive: 2.48%
CCn1cc(S(=O)(=O)c2ccc(OC)cc2)c(=O)c2cc(F)c(N3CCCCCC3)cc21 | inactive: -12.3%
COc1ccc(NC(=O)c2cccn2-c2nnc(N3CCCCC3)s2)c(OC)c1 | inactive: -0.865%
CCOC(=O)COc1cc(C)c(Cl)cc1C(=O)c1ccn2nc(-c3ccc(OC)cc3)cc2n1 | inactive: 27.6%
O=C(CSc1ncc2c(n1)-c1cc(Cl)ccc1N(Cc1ccccc1)S2(=O)=O)NCCc1ccccc1 | inactive: 21.2%
CS(=O)(=O)Nc1ccc(-c2nc3ccccc3s2)cc1 | inactive: 1.61%
CCOC(=O)c1ccc(NC(=O)CSc2nc(-c3ccc(F)cc3)cc(C(F)(F)F)c2C#N)cc1 | inactive: 5.23%
Cc1ccc(NC(=O)Nc2c(C)n(C)n(-c3ccccc3)c2=O)c(Cl)c1 | inactive: 1.03%
CCOc1ccc(NC(=O)C2=C(C)C(=O)OC23CCC(C)CC3)cc1 (configuration not stated) | inactive: 6.58%
Cc1ccc2c(=O)c(C(=O)c3ccc(F)cc3)cn(CC(=O)NCc3ccccc3)c2n1 | inactive: -20.8%
COc1cccc(Cn2c(CNC(=O)C(C)C)nc3cccnc32)c1 | inactive: 13.7%
COc1ccc(OC)c(S(=O)(=O)NCCc2sc(-c3ccc(C)cc3)nc2C)c1 | inactive: -11.9%
COc1ccc(N2CCN(C(=O)c3ccc(C)c(NC(=O)c4nsc5ccccc45)c3)CC2)cc1 | inactive: 4.2%
CCOC(=O)c1c(NC(=O)/C=C/c2ccccc2)sc2c1CCCC2 | inactive: 24%
COc1ccc(-c2cn3c(n2)sc2cc(C(=O)NCc4ccccc4OC)ccc23)cc1 | inactive: -1.59%
COC(=O)c1cc(S(=O)(=O)NCC2CCN(Cc3cc(C)ccc3C)CC2)c[nH]1 | inactive: -18.2%
CC(C)(C)OC(=O)N1CCC(c2c(C(=O)NCc3ccccn3)cnn2-c2ccccc2)CC1 | inactive: 13.5%

— PubChem BioAssay AID1508642 (National Center for Advancing Translational Sciences (NCATS), 2021)
